{"source": "a collection of fitness landscapes (doi:10.1126/science.1257360)", "parents": {"B1": {"name": "PhoQ; a variant is named by its letters at X, in order, P23837 (parent)", "chain": "MKKLLRLFFPLSLRVRFLLATAAVVLVLSLAYGMVALIGYSVSFDKTTFRLLRGESNLFYTLAKWENNKLHVELPENIDKQSPTMTLIYDENGQLLWAQRDVPWLMKMIQPDWLKSNGFHEIEADVNDTSLLLSGDHSIQQQLQEVREDDDDAEMTHSVAVNVYPATSRMPKLTIVVVDTIPVELKSSYMVWSWFIYVLSANLLLVIPLLWVAAWWSLRPIEALAKEVRELEEHNRELLNPATTRELTSLVRNLNRLLKSERERYDKYRTTLTDLTHSLKTPLXXLQXXLRSLRSEKMSVSDAEPVMLEQISRISQQIGYYLHRASMRGGTLLSRELHPVAPLLDNLTSALNKVYQRKGVNISLDISPEISFVGEQNDFVEVMGNVLDNACKYCLEFVEISARQTDEHLYIVVEDDGPGIPLSKREVIFDRGQRVDTLRPGQGVGLAVAREITEQYEGKIVAGESMLGGARMEVIFGRQHSAPKDE"}}, "note": "The list shows a part of the results."}
{"variants_of": "B1", "assay": "enrichment ratio after two sorts for PhoP signalling (ratio (wild type AVST 3.29)); higher = more functional", "conditions": "with PhoP (E. coli)"}
{"variant": "WMKW", "enrichment ratio": "≤ 0.25"}
{"variant": "VLMT", "enrichment ratio": "≤ 0.25"}
{"variant": "WHPV", "enrichment ratio": "≤ 0.25"}
{"variant": "RVMW", "enrichment ratio": "≤ 0.25"}
{"variant": "WHPT", "enrichment ratio": "≤ 0.25"}
{"variant": "TQYD", "enrichment ratio": 3.43}
{"variant": "PKYY", "enrichment ratio": "≤ 0.25"}
{"variant": "FTEY", "enrichment ratio": "≤ 0.25"}
{"variant": "WCPV", "enrichment ratio": "≤ 0.25"}
{"variant": "RGRF", "enrichment ratio": "≤ 0.25"}
{"variant": "NPGK", "enrichment ratio": "≤ 0.25"}
{"variant": "VYMY", "enrichment ratio": "≤ 0.25"}
{"variant": "RRAS", "enrichment ratio": 0.387}
{"variant": "TRGE", "enrichment ratio": "≤ 0.25"}
{"variant": "YQQM", "enrichment ratio": "≤ 0.25"}
{"variant": "TIIW", "enrichment ratio": "≤ 0.25"}
{"variant": "QEVA", "enrichment ratio": "≤ 0.25"}
{"variant": "WMHT", "enrichment ratio": "≤ 0.25"}
{"variant": "YGKQ", "enrichment ratio": "≤ 0.25"}
{"variant": "RSGF", "enrichment ratio": "≤ 0.25"}
{"variant": "GHYK", "enrichment ratio": "≤ 0.25"}
{"variant": "LMDF", "enrichment ratio": "≤ 0.25"}
{"variant": "FFIG", "enrichment ratio": "≤ 0.25"}
{"variant": "DRTT", "enrichment ratio": "≤ 0.25"}
{"variant": "RIRR", "enrichment ratio": "≤ 0.25"}
{"variant": "MTVS", "enrichment ratio": "≤ 0.25"}
{"variant": "PCWN", "enrichment ratio": "≤ 0.25"}
{"variant": "KTAY", "enrichment ratio": "≤ 0.25"}
{"variant": "KSKK", "enrichment ratio": "≤ 0.25"}
{"variant": "DHAE", "enrichment ratio": "≤ 0.25"}
{"variant": "DNMC", "enrichment ratio": "≤ 0.25"}
{"variant": "WADW", "enrichment ratio": "≤ 0.25"}
{"variant": "SSCW", "enrichment ratio": 2.47}
{"variant": "YLTW", "enrichment ratio": "≤ 0.25"}
{"variant": "FENW", "enrichment ratio": "≤ 0.25"}
{"variant": "CINV", "enrichment ratio": "≤ 0.25"}
{"variant": "FNAT", "enrichment ratio": "≤ 0.25"}
{"variant": "RKKD", "enrichment ratio": "≤ 0.25"}
{"variant": "AQWL", "enrichment ratio": "≤ 0.25"}
{"variant": "NCYR", "enrichment ratio": "≤ 0.25"}
{"variant": "GFII", "enrichment ratio": "≤ 0.25"}
{"variant": "TYKA", "enrichment ratio": "≤ 0.25"}
{"variant": "EIKP", "enrichment ratio": "≤ 0.25"}
{"variant": "PREW", "enrichment ratio": "≤ 0.25"}
{"variant": "IRTE", "enrichment ratio": "≤ 0.25"}
{"variant": "RRNC", "enrichment ratio": "≤ 0.25"}
{"variant": "HWWI", "enrichment ratio": "≤ 0.25"}
{"variant": "PNKA", "enrichment ratio": "≤ 0.25"}
{"variant": "WGYD", "enrichment ratio": "≤ 0.25"}
{"variant": "KHCI", "enrichment ratio": "≤ 0.25"}
{"variant": "YYIE", "enrichment ratio": "≤ 0.25"}
{"variant": "IITM", "enrichment ratio": "≤ 0.25"}
{"variant": "HAYP", "enrichment ratio": "≤ 0.25"}
{"variant": "FEDR", "enrichment ratio": "≤ 0.25"}
{"variant": "NEYG", "enrichment ratio": "≤ 0.25"}
{"variant": "GASP", "enrichment ratio": "≤ 0.25"}
{"variant": "AHNG", "enrichment ratio": "≤ 0.25"}
{"variant": "SQRA", "enrichment ratio": "≤ 0.25"}
{"variant": "CMIR", "enrichment ratio": "≤ 0.25"}
{"variant": "DRGY", "enrichment ratio": "≤ 0.25"}
{"variant": "WSMI", "enrichment ratio": "≤ 0.25"}
{"variant": "MYGQ", "enrichment ratio": "≤ 0.25"}
{"variant": "SAMV", "enrichment ratio": 14.1}
{"variant": "FCKK", "enrichment ratio": "≤ 0.25"}
{"variant": "HTAR", "enrichment ratio": "≤ 0.25"}
{"variant": "SNLF", "enrichment ratio": 6.89}
{"variant": "RMAL", "enrichment ratio": "≤ 0.25"}
{"variant": "WTCH", "enrichment ratio": "≤ 0.25"}
{"variant": "GTMF", "enrichment ratio": 8.13}
{"variant": "DGVW", "enrichment ratio": "≤ 0.25"}
{"variant": "VYFL", "enrichment ratio": "≤ 0.25"}
{"variant": "PPCP", "enrichment ratio": "≤ 0.25"}
{"variant": "SYTY", "enrichment ratio": "≤ 0.25"}
{"variant": "FNEP", "enrichment ratio": "≤ 0.25"}
{"variant": "EQTT", "enrichment ratio": "≤ 0.25"}
{"variant": "YMWC", "enrichment ratio": "≤ 0.25"}
{"variant": "EDSP", "enrichment ratio": "≤ 0.25"}
{"variant": "ELKH", "enrichment ratio": "≤ 0.25"}
{"variant": "LWKW", "enrichment ratio": "≤ 0.25"}
{"variant": "AQKH", "enrichment ratio": "≤ 0.25"}
{"variant": "QHDG", "enrichment ratio": 110}
{"variant": "IFRK", "enrichment ratio": "≤ 0.25"}
{"variant": "WRSD", "enrichment ratio": "≤ 0.25"}
{"variant": "TQTP", "enrichment ratio": "≤ 0.25"}
{"variant": "QCSK", "enrichment ratio": "≤ 0.25"}
{"variant": "SGGT", "enrichment ratio": 2.3}
{"variant": "RKHA", "enrichment ratio": "≤ 0.25"}
{"variant": "KMSW", "enrichment ratio": "≤ 0.25"}
{"variant": "YYNA", "enrichment ratio": "≤ 0.25"}
{"variant": "FTKF", "enrichment ratio": "≤ 0.25"}
{"variant": "ARVH", "enrichment ratio": "≤ 0.25"}
{"variant": "VHPI", "enrichment ratio": "≤ 0.25"}
{"variant": "HSWC", "enrichment ratio": "≤ 0.25"}
{"variant": "QAPD", "enrichment ratio": "≤ 0.25"}
{"variant": "MYKI", "enrichment ratio": "≤ 0.25"}
{"variant": "HYQH", "enrichment ratio": "≤ 0.25"}
{"variant": "FPVW", "enrichment ratio": "≤ 0.25"}
{"variant": "SNHI", "enrichment ratio": "≤ 0.25"}
{"variant": "DNLG", "enrichment ratio": "≤ 0.25"}
{"variant": "VNTQ", "enrichment ratio": "≤ 0.25"}
{"variant": "PFQC", "enrichment ratio": "≤ 0.25"}
{"variant": "LEDE", "enrichment ratio": "≤ 0.25"}
{"variant": "GFHF", "enrichment ratio": "≤ 0.25"}
{"variant": "RCHV", "enrichment ratio": "≤ 0.25"}
{"variant": "DYNQ", "enrichment ratio": "≤ 0.25"}
{"variant": "YPHS", "enrichment ratio": "≤ 0.25"}
{"variant": "AMTH", "enrichment ratio": 0.411}
{"variant": "GMMF", "enrichment ratio": 3.35}
{"variant": "MIHG", "enrichment ratio": "≤ 0.25"}
{"variant": "LYPC", "enrichment ratio": "≤ 0.25"}
{"variant": "VVEW", "enrichment ratio": "≤ 0.25"}
{"variant": "QDNT", "enrichment ratio": "≤ 0.25"}
{"variant": "CSRL", "enrichment ratio": "≤ 0.25"}
{"variant": "IYQR", "enrichment ratio": "≤ 0.25"}
{"variant": "HVGG", "enrichment ratio": "≤ 0.25"}
{"variant": "NSIR", "enrichment ratio": "≤ 0.25"}
{"variant": "LQYS", "enrichment ratio": "≤ 0.25"}
{"variant": "WLAP", "enrichment ratio": "≤ 0.25"}
{"variant": "FILP", "enrichment ratio": "≤ 0.25"}
{"variant": "VRMR", "enrichment ratio": "≤ 0.25"}
{"variant": "WSNA", "enrichment ratio": "≤ 0.25"}
{"variant": "SMQG", "enrichment ratio": 0.385}
{"variant": "TFPD", "enrichment ratio": "≤ 0.25"}
{"variant": "TRKV", "enrichment ratio": "≤ 0.25"}
{"variant": "MDKR", "enrichment ratio": "≤ 0.25"}
{"variant": "WSST", "enrichment ratio": "≤ 0.25"}
{"variant": "NNCN", "enrichment ratio": "≤ 0.25"}
{"variant": "WLIC", "enrichment ratio": "≤ 0.25"}
{"variant": "FYKW", "enrichment ratio": "≤ 0.25"}
{"variant": "VMWH", "enrichment ratio": 0.55}
{"variant": "YYIF", "enrichment ratio": "≤ 0.25"}
{"variant": "VMNT", "enrichment ratio": "≤ 0.25"}
{"variant": "RETI", "enrichment ratio": "≤ 0.25"}
{"variant": "YAEF", "enrichment ratio": "≤ 0.25"}
{"variant": "ISIT", "enrichment ratio": "≤ 0.25"}
{"variant": "KGYV", "enrichment ratio": "≤ 0.25"}
{"variant": "FYFI", "enrichment ratio": "≤ 0.25"}
{"variant": "QRKE", "enrichment ratio": "≤ 0.25"}
{"variant": "ARVM", "enrichment ratio": 14.7}
{"variant": "IMVQ", "enrichment ratio": "≤ 0.25"}
{"variant": "SPNK", "enrichment ratio": "≤ 0.25"}
{"variant": "IGFG", "enrichment ratio": "≤ 0.25"}
{"variant": "MMNY", "enrichment ratio": "≤ 0.25"}
{"variant": "HVWD", "enrichment ratio": "≤ 0.25"}
{"variant": "YDQH", "enrichment ratio": "≤ 0.25"}
{"variant": "QHSA", "enrichment ratio": "≤ 0.25"}
{"variant": "IMKN", "enrichment ratio": "≤ 0.25"}
{"variant": "KHFY", "enrichment ratio": "≤ 0.25"}
{"variant": "STRP", "enrichment ratio": "≤ 0.25"}
{"variant": "EDHP", "enrichment ratio": "≤ 0.25"}
{"variant": "RSHW", "enrichment ratio": "≤ 0.25"}
{"variant": "FVWT", "enrichment ratio": "≤ 0.25"}
{"variant": "RGGG", "enrichment ratio": "≤ 0.25"}
{"variant": "FRRL", "enrichment ratio": "≤ 0.25"}
{"variant": "MKCG", "enrichment ratio": "≤ 0.25"}
{"variant": "MHTW", "enrichment ratio": "≤ 0.25"}
{"variant": "AAIK", "enrichment ratio": "≤ 0.25"}
{"variant": "WSIG", "enrichment ratio": "≤ 0.25"}
{"variant": "ICWK", "enrichment ratio": "≤ 0.25"}
{"variant": "MMEL", "enrichment ratio": "≤ 0.25"}
{"variant": "YTRY", "enrichment ratio": "≤ 0.25"}
{"variant": "QEPD", "enrichment ratio": "≤ 0.25"}
{"variant": "AWDS", "enrichment ratio": "≤ 0.25"}
{"variant": "TIMD", "enrichment ratio": "≤ 0.25"}
{"variant": "NNKR", "enrichment ratio": "≤ 0.25"}
{"variant": "RGIK", "enrichment ratio": "≤ 0.25"}
{"variant": "HGIH", "enrichment ratio": "≤ 0.25"}
{"variant": "LYAQ", "enrichment ratio": "≤ 0.25"}
{"variant": "YQCP", "enrichment ratio": "≤ 0.25"}
{"variant": "WPLI", "enrichment ratio": "≤ 0.25"}
{"variant": "RMSN", "enrichment ratio": "≤ 0.25"}
{"variant": "PIAH", "enrichment ratio": "≤ 0.25"}
{"variant": "SADS", "enrichment ratio": "≤ 0.25"}
{"variant": "AARR", "enrichment ratio": "≤ 0.25"}
{"variant": "LVYV", "enrichment ratio": "≤ 0.25"}
{"variant": "VGSH", "enrichment ratio": "≤ 0.25"}
{"variant": "FCWC", "enrichment ratio": "≤ 0.25"}
{"variant": "HTNY", "enrichment ratio": "≤ 0.25"}
{"variant": "IISM", "enrichment ratio": "≤ 0.25"}
{"variant": "YIDT", "enrichment ratio": "≤ 0.25"}
{"variant": "CLIW", "enrichment ratio": "≤ 0.25"}
{"variant": "TVQY", "enrichment ratio": 19.2}
{"variant": "EATQ", "enrichment ratio": "≤ 0.25"}
{"variant": "TYVQ", "enrichment ratio": "≤ 0.25"}
{"variant": "AQGF", "enrichment ratio": 9.78}
{"variant": "IQMP", "enrichment ratio": "≤ 0.25"}
{"variant": "EFNV", "enrichment ratio": "≤ 0.25"}
{"variant": "DFMT", "enrichment ratio": "≤ 0.25"}
{"variant": "RTCC", "enrichment ratio": "≤ 0.25"}
{"variant": "FVDH", "enrichment ratio": "≤ 0.25"}
{"variant": "MNFN", "enrichment ratio": "≤ 0.25"}
{"variant": "VTSG", "enrichment ratio": "≤ 0.25"}
{"variant": "HNVA", "enrichment ratio": "≤ 0.25"}
{"variant": "HIRF", "enrichment ratio": "≤ 0.25"}
{"variant": "PTQT", "enrichment ratio": "≤ 0.25"}
